Here are results for 23 molecules from patent US20230331822A1 (published 2023).

The chains are these.
B1: COV2-122-10-Fc (Fc fusion)
chain: QLQLVESGGDLVQPGESLRLSCVASGATSDIYAIGWFRQAPGKEREGVSCISPSGGSTSYADSVRGRFTISRENAKNAVYLEMNSLKPEDTAVYYCAAASPSWHYCSGYEHEYDDWGQGTQVTVSS[human IgG1 Fc with changes not listed]
B2: COV2-214-24-Fc (Fc fusion)
chain: QLQLVESGGDLVQPGESLRLSCVASGRTVSMYAIGWFRQAPGKEREGVSCISRSGRSTSYADSVRGRFTISRENAKNAVYLEMNSLKPEDTAVYYCAARDGGLHYALYVEASHYNYWGQGTQVTVSS[human IgG1 Fc with changes not listed]
B3: COV2-237-13-Fc (Fc fusion)
chain: QLQLVESGGDLVQPGESLRLSCVASFKSYHIAWIGWFRQAPGKEREGVSCSLTGASITSYADSVRGRFTISRENAKNAVYLEMNSLKPEDTAVYYCAARDYASSLYCSRNEAMYAYWGQGTQVTVSS[human IgG1 Fc with changes not listed]
B4: COV2-22-8-Fc (Fc fusion)
chain: QLQLVESGGDLVQPGESLRLSCVASGFTLDRYAIGWFRQAPGKEREGVSCISSGGTTSYADSVRGRFTISRENAKNAVYLEMNSLKPEDTAVYYCAAGTQLRYGCSRQARRYDYWGQGTQVTVSS[human IgG1 Fc with changes not listed]
B5: COV2-356-6-Fc (Fc fusion)
chain: QLQLVESGGDLVQPGESLRLSCVASGFTLGNYAIGWFRQAPGKEREGVSCISLSGDIISYADSVRGRFTISRENAKNAVYLEMNSLKPEDTAVYYCAAPFPSLLYCSLCPSNPEFCRHWGQGTQVTVSS[human IgG1 Fc with changes not listed]
B6: COV2-120-17-Fc (Fc fusion)
chain: QLQLVESGGDLVQPGESLRLSCVASGHTGSTYIIGWFRQAPGKEREGVSCISRSGILRSYADSVRGRFTISRENAKNAVYLEMNSLKPEDTAVYYCAARDSLTGVIGNTPGEYDYWGQGTQVTVSS[human IgG1 Fc with changes not listed]
B7: COV2-143-4-Fc (Fc fusion)
chain: QLQLVESGGDLVQPGESLRLSCVASGLTLNNNTIGWFRQAPGKEREGVSCISPSGIVTSYADSVRGRFTISRENAKNAVYLEMNSLKPEDTAVYYCAVLQWNGAGLPSPLGSWGQGTQVTVSS[human IgG1 Fc with changes not listed]
B8: COV2-32-26-Fc (Fc fusion)
chain: QLQLVESGGDLVQPGESLRLSCVASGRTFGTYRIGWFRQAPGKEREGVSCIFWSGGGASYADSVRGRFTISRENAKNAVYLEMNSLKPEDTAVYYCAARAPTTQEYDYWGQGTQVTVSS[human IgG1 Fc with changes not listed]
B9: COV2-353-14-Fc (Fc fusion)
chain: QLQLVESGGDLVQPGESLRLSCVASGFRLGGYAIGWFRQAPGKEREGVSCISGSGIISSYADSVRGRFTISRENAKNAVYLEMNSLKPEDTAVYYCAAPSGSSYGSRRLPCGIDSQDYQTWGQGTQVTVSS[human IgG1 Fc with changes not listed]
B10: COV2-136-12-Fc (Fc fusion)
chain: QLQLVESGGDLVQPGESLRLSCVASGFTFHYYAIGWFRQAPGKEREGVSCISSGGGRTSYADSVRGRFTISRENAKNAVYLEMNSLKPEDTAVYYCAALQGSLHYCSGLVGEYEYWGQGTQVTVSS[human IgG1 Fc with changes not listed]
B11: COV2-115-7-Fc (Fc fusion)
chain: QLQLVESGGDLVQPGESLRLSCVASGFSLDGYAIGWFRQAPGKEREGVSCIGRLGTTTSYADSVRGRFTISRENAKNAVYLEMNSLKPEDTAVYYCAAKRSTWFGCSTLDDYDYWGQGTQVTVSS[human IgG1 Fc with changes not listed]
B12: COV2-39-19-Fc (Fc fusion)
chain: QLQLVESGGDLVQPGESLRLSCVASGRTFTRYPIGWFRQAPGKEREGVSCISGSGIITSYADSVRGRFTISRENAKNAVYLEMNSLKPEDTAVYYCAVDNAPTSSLPLTPGEYDYWGQGTQVTVSS[human IgG1 Fc with changes not listed]
B13: COV2-124-20-Fc (Fc fusion)
chain: QLQLVESGGDLVQPGESLRLSCVASGRTFSSYAIGWFRQAPGKEREGVSCISSGGITSYADSVRGRFTISRENAKNAVYLEMNSLKPEDTAVYYCAANRGRFTGWRSLTDYTYWGQGTQVTVSS[human IgG1 Fc with changes not listed]
B14: COV2-18-21-Fc (Fc fusion)
chain: QLQLVESGGDLVQPGESLRLSCVASGRTFSTYAIGWFRQAPGKEREGVSCISPSRIITSYADSVRGRFTISRENAKNAVYLEMNSLKPEDTAVYYCAADSSYGGRLGRRIDDYEYWGQGTQVTVSS[human IgG1 Fc with changes not listed]
B15: COV2-153-18-Fc (Fc fusion)
chain: QLQLVESGGDLVQPGESLRLSCVASGRTVSSYVIGWFRQAPGKEREGVSCISRSGIITSYADSVRGRFTISRENAKNAVYLEMNSLKPEDTAVYYCAAAQTQVLPTEDRSYDYWGQGTQVTVSS[human IgG1 Fc with changes not listed]
B16: COV2-331-25-Fc (Fc fusion)
chain: QLQLVESGGDLVQPGESLRLSCVASGFTFSSYAIGWFRQAPGKEREGVSCLDVTGRSTSYADSVRGRFTISRENAKNAVYLEMNSLKPEDTAVYYCAAVYTPFRFAFKTDPDRQDHWGQGTQVTVSS[human IgG1 Fc with changes not listed]
B17: COV2-360-3-Fc (Fc fusion)
chain: QLQLVESGGDLVQPGESLRLSCVASGFTLDSYAIGWFRQAPGKEREGVSCITKHGGTTSYADSVRGRFTISRENAKNAVYLEMNSLKPEDTAVYYCAADHRALRFGCAVVPGPYDYWGQGTQVTVSS[human IgG1 Fc with changes not listed]
B18: COV2-116-9-Fc (Fc fusion)
chain: QLQLVESGGDLVQPGESLRLSCVASGFTLDYYAIGWFRQAPGKEREGVSCISSSGTSTSYADSVRGRFTISRENAKNAVYLEMNSLKPEDTAVYYCAALQGSYYYTSLHQTEYDYWGQGTQVTVSS[human IgG1 Fc with changes not listed]
B19: COV2-187-2-Fc (Fc fusion)
chain: QLQLVESGGDLVQPGESLRLSCVASGLSLEHYAIGWFRQAPGKEREGVSCIDSSGGSTSYADSVRGRFTISRENAKNAVYLEMNSLKPEDTAVYYCAALQGSYYYTSLHQTEYDYWGQGTQVTVSS[human IgG1 Fc with changes not listed]
B20: COV2-171-11-Fc (Fc fusion)
chain: QLQLVESGGDLVQPGESLRLSCVASGFTLDYYAIGWFRQAPGKEREGVSCISPSGTSTSYADSVRGRFTISRENAKNAVYLEMNSLKPEDTAVYYCAAANPSYYYCSGYPHEYDDWGQGTQVTVSS[human IgG1 Fc with changes not listed]
B21: COV2-13-5-Fc (Fc fusion)
chain: QLQLVESGGDLVQPGESLRLSCVASGFTLGNYEIGWFRQAPGKEREGVSCISRSGVIFSYADSVRGRFTISRENAKNAVYLEMNSLKPEDTAVYYCAARFRAGLVQSLCQSTPEFYQDWGQGTQVTVSS[human IgG1 Fc with changes not listed]
B22: COV2-114-1-Fc (Fc fusion)
chain: QLQLVESGGDLVQPGESLRLSCVASGLSLEHYAIGWFRQAPGKEREGVSCISDSGATRSYADSVRGRFTISRENAKNAVYLEMNSLKPEDTAVYYCSATPGAFRTCAFRDFSHLANWGQGTQVTVSS[human IgG1 Fc with changes not listed]
B23: COV2-151-23-Fc (Fc fusion)
chain: QLQLVESGGDLVQPGESLRLSCVASASGRTSSTIGWFRQAPGKEREGVSCITWSGGSTSYADSVRGRFTISRENAKNAVYLEMNSLKPEDTAVYYCAAGLSPLMLTASRRYEYWGQGTQVTVSS[human IgG1 Fc with changes not listed]

For one test, the target named is T1, SARS-CoV Spike protein, full length, C-terminally fused with EGFP (SARS-CoV).
T1 construct: whole, on cells
Nature of the test: flow cytometry, HEK293 cells expressing full-length Spike-EGFP, anti-hIg-PE.
Take B1: the binding result is listed as “no binding”.

Regarding B2, the binding result is listed as “no binding”.

B3: the binding result is given as “no binding”.

For the molecule B4, the binding result is “no binding”.

B5: the binding result is “no binding”.

For the molecule B6, the binding result was “no binding”.

Consider B7, for which the binding result is “no binding”.

With B8, the binding result is “no binding”.

As for B9, the binding result is “no binding”.

For the molecule B10, the binding result is “no binding”.

Regarding B11, the binding result is given as “no binding”.

On to B12, for which the binding result is “no binding”.

With B13, the binding result is “no binding”.

Regarding B14, the binding result is listed as “no binding”.

Turning to B15, the binding result is on record as “no binding”.

B16: the binding result is listed as “no binding”.

For B17, the binding result is recorded as “no binding”.

Take B18: the binding result is reported as “no binding”.

In the case of B19, the binding result is on record as “no binding”.

B20: the binding result was “no binding”.

Consider B21, for which the binding result is given as “no binding”.

On to B22, for which the binding result was “no binding”.

With B23, the binding result was “no binding”.

The target of another test is T2, MERS-CoV Spike protein, full length, C-terminally fused with EGFP (MERS-CoV).
T2 construct: whole, on cells
Described as above.
Turning to B1, the binding result was “no binding”.

With B2, the binding result is on record as “no binding”.

B3: the binding result is given as “no binding”.

B4: the binding result is listed as “no binding”.

As to B5, the binding result is listed as “no binding”.

Consider B6, for which the binding result was “no binding”.

In the case of B7, the binding result is “no binding”.

With B8, the binding result is listed as “no binding”.

As for B9, the binding result is “no binding”.

As to B10, the binding result is given as “no binding”.

B11: the binding result is on record as “no binding”.

Regarding B12, the binding result is reported as “no binding”.

For B13, the binding result was “no binding”.

For B14, the binding result is on record as “no binding”.

With B15, the binding result was “no binding”.

With B16, the binding result was “no binding”.

Take B17: the binding result is given as “no binding”.

On to B18, for which the binding result was “no binding”.

B19: the binding result is recorded as “no binding”.

Turning to B20, the binding result is “no binding”.

Take B21: the binding result is “no binding”.

B22: the binding result is “no binding”.

In the case of B23, the binding result is recorded as “no binding”.
